In publication PMC10317990:
These are yes or no findings as the source states them, for the method shown. In cells and extracts the contact can be indirect. Some entries that bind do so weakly or less than the wild type. Blank lines part the entries; values can stand above or below the substance they belong to.

The chains behind the UniProt entries cited, without tags or fusion partners. Where a name states a change or a piece, a line headed by the entry shows the natural chain unless it says otherwise. A line that says so, or that is headed by a name, gives the form on record, which may keep a tag or linker. Residues count along the entry.
UniProt Q13761: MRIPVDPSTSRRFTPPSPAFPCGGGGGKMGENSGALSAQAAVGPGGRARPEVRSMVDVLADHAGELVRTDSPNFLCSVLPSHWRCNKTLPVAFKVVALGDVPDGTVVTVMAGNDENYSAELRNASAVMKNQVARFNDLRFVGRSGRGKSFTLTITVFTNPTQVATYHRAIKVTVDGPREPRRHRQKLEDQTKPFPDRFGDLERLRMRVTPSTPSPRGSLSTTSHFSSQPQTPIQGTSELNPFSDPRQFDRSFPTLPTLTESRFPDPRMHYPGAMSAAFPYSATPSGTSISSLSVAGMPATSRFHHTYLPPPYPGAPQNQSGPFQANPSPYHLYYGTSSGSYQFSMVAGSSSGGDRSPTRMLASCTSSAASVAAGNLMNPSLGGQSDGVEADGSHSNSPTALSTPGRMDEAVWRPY
FLAG-tagged RUNX3 truncation (aa 1-187): residues 1-187 of Q13761
UniProt P01106: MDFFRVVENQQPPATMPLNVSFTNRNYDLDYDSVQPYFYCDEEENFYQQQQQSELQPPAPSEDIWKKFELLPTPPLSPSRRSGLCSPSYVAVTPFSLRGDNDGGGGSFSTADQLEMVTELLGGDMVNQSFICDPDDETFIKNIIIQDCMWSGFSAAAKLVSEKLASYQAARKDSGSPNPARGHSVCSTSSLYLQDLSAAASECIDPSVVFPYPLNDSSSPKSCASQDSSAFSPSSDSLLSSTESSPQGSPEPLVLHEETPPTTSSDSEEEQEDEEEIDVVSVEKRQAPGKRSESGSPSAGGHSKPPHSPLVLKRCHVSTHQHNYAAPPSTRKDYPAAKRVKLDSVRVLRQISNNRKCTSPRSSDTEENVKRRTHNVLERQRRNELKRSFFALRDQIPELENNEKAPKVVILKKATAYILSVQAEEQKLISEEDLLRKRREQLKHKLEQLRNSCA
FLAG-tagged MYC: residues 16-454 of P01106
HA-tagged MYC aa 1-171: residues 16-186 of P01106
HA-tagged MYC aa 357-439: residues 372-454 of P01106
UniProt Q13950: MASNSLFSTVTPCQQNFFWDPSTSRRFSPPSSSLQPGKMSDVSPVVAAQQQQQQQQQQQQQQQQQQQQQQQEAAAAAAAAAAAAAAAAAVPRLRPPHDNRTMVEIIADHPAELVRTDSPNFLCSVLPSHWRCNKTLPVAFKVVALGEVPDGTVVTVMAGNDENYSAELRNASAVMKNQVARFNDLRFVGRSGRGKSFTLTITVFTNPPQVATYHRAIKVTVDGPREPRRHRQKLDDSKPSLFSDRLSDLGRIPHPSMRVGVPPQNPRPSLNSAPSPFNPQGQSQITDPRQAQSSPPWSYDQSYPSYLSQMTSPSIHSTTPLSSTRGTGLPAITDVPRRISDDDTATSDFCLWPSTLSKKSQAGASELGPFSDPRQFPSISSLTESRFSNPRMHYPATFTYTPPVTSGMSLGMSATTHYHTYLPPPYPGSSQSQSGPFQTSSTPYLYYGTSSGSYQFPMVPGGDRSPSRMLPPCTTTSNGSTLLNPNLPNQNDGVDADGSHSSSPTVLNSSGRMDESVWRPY
UniProt Q01196: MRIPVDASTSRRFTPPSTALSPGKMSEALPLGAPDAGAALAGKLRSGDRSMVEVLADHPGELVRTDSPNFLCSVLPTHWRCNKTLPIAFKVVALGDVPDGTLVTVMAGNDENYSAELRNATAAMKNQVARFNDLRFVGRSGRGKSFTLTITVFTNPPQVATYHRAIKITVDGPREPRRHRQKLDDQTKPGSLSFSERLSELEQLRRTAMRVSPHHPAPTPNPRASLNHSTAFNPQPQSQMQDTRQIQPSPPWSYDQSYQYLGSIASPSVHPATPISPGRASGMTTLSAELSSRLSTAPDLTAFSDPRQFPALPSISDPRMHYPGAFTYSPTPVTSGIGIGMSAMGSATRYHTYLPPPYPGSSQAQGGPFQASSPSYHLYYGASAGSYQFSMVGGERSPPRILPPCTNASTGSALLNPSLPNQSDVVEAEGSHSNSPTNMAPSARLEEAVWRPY
UniProt P49841: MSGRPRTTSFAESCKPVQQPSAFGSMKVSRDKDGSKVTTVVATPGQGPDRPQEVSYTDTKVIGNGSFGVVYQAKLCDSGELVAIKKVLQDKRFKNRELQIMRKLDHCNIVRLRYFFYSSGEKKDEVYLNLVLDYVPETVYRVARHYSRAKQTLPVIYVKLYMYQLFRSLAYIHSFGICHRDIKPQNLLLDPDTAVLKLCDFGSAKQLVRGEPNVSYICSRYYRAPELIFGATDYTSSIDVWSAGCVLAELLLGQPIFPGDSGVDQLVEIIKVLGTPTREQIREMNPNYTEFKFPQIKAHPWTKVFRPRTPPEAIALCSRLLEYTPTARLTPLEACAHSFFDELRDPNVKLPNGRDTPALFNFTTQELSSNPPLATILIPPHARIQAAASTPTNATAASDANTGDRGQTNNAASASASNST
UniProt Q13951: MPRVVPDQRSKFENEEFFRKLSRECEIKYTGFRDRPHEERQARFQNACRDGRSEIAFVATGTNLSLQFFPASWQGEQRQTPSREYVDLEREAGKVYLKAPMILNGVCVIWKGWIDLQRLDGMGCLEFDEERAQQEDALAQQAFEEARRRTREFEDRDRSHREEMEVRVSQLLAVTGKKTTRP
UniProt P61244: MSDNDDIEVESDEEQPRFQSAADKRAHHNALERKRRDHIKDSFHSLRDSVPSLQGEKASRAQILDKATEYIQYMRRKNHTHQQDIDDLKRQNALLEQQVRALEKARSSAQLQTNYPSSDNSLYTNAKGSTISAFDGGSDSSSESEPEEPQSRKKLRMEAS
UniProt Q969H0: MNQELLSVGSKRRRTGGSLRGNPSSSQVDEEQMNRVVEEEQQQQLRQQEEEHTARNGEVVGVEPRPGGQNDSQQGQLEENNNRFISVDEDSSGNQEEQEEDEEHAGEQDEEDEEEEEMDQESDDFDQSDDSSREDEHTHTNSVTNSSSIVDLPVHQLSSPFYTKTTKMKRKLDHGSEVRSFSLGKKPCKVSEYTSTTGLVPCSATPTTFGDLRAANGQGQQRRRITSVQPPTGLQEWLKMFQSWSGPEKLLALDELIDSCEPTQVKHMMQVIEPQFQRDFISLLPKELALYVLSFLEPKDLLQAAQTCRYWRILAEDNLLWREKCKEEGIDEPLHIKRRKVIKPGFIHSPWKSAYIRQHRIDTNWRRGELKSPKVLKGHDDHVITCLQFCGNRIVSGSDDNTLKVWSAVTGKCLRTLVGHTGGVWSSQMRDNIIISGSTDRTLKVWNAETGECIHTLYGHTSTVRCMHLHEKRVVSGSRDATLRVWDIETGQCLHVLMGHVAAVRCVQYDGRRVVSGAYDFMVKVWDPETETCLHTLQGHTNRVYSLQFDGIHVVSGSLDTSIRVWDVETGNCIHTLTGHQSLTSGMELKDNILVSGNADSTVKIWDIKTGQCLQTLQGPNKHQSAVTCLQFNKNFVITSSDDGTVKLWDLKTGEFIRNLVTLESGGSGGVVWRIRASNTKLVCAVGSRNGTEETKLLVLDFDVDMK

Columns and labels:
[1] = target: FLAG-tagged RUNX3 truncation (aa 1-187) (human) (UniProt Q13761); test: co-IP; HEK293T cells transfected with the indicated plasmids, lysed 24 h later; 400 µg lysate, 90 min with anti-HA affinity gel or Flag M2 affinity gel in 25 mM Tris pH 8.0, 0.15 M NaCl, 0.25 mM EDTA, 2.5% glycerol, 0.25% NP40, 1 mM DTT; Benzonase in the lysis buffer; immunoblot
HA-tagged MYC = HA-tagged MYC (UniProt P01106); test: as above
RUNX2 (human) = RUNX2 (human) (UniProt Q13950); test: as above
[2] = target: FLAG-tagged RUNX3 (human) (UniProt Q13761); test: as above
[3] = target: RUNX3 R122C mutant (human) (UniProt Q13761); test: as above
RUNX1 (human) = RUNX1 (human) (UniProt Q01196); test: as above
[4] = target: endogenous RUNX3 (human (endogenous in HGC27)) (UniProt Q13761); test: co-IP; endogenous proteins, 1 mg HGC27 whole-cell lysate, anti-RUNX3 antibody (D9K6L) or normal IgG overnight at 4 °C, Dynabeads Protein G; immunoblot
[5] = target: endogenous RUNX3 (human (endogenous in HGC27)) (UniProt Q13761); test: proximity ligation; Duolink in situ PLA on HGC27 cells, endogenous proteins, pairs of primary antibodies
FLAG-tagged MYC = FLAG-tagged MYC (UniProt P01106); test: co-IP; HEK293T cells transfected with the indicated plasmids, lysed 24 h later; 400 µg lysate, 90 min with anti-HA affinity gel or Flag M2 affinity gel in 25 mM Tris pH 8.0, 0.15 M NaCl, 0.25 mM EDTA, 2.5% glycerol, 0.25% NP40, 1 mM DTT; Benzonase in the lysis buffer; immunoblot

Substance: GSK3β (from UniProt P49841 1-420) (enzyme)
binding [1]: binds

Substance: CBFβ (from UniProt Q13951 1-182)
binding (HA-tagged MYC): binds

Substance: MAX (from UniProt P61244 1-160)
binding [2]: no binding

Substance: HA-tagged MYC aa 1-171 (from UniProt P01106-1 1-171) (domain or fragment)
binding [2]: binds

Substance: FBXW7 (from UniProt Q969H0 1-707)
binding [2]: binds
binding [1]: binds

Substance: Untagged RUNX3 (from UniProt Q13761 1-415)
binding (FLAG-tagged MYC): binds

Now from value to substance:

binding (RUNX2 (human)): binds
binding [2]: binds
binding [3]: no binding
binding [1]: binds
binding (RUNX1 (human)): binds
Substance: HA-tagged MYC (from UniProt P01106-1 1-439)

binding [4]: binds
binding [5]: binds
Substance: endogenous GSK3β (from UniProt P49841 1-420) (enzyme)

binding [4]: binds
binding [5]: binds
Substance: endogenous FBXW7 (from UniProt Q969H0 1-707)

binding [5]: no binding
Substance: endogenous MAX (from UniProt P61244 1-160)

binding [2]: binds
Substance: HA-tagged MYC aa 357-439 (from UniProt P01106-1 357-439) (domain or fragment)
